# Test results taken from US9943596B2, “Combination therapy using dual inhibitor of c-MET and EGFR and IGF-1R inhibitor” (Samsung Electronics Co., Ltd., priority 2014, dated 2018).
# B1: huAbF46-H4-A1: affinity-matured humanized anti-c-Met antibody, L3-1 origin (antibody)
# heavy: EVQLVESGGGLVQPGGSLRLSCAASGFTFTDYYMSWVRQAPGKGLEWLGFIRNKANGYTTEYSASVKGRFTISRDNSKNTLYLQMNSLRAEDTAVYYCARDNWFAYWGQGTLVTVSSASTKGPSVFPLAPSSKSTSGGTAALGCLVKDYFPEPVTVSWNSGALTSGVHTFPAVLQSSGLYSLSSVVTVPSSSLGTQTYICNVNHKPSNTKVDKKVEPKSCDCH[human IgG1 Fc not given here]
# light: DIQMTQSPSSLSASVGDRVTITCKSSQSLLASGNQNNYLAWHQQKPGKAPKMLIIWASTRVSGVPSRFSGSGSGTDFTLTISSLQPEDFATYYCQQSYSRPYTFGQGTKVEIKRTVAAPSVFIFPPSDEQLKSGTASVVCLLNNFYPREAKVQWKVDNALQSGNSQESVTEQDSKDSTYSLSSTLTLSKADYEKHKVYACEVTHQGLSSPVTKSFNRGEC
# Legend:
# Settings in all cases: among huAbF46-H4-A1, -A2, -A3, -A5
# c-Met [1] = target: T1, c-Met (Homo sapiens, UniProt P08581); assay: c-Met degradation by affinity-matured antibodies; format: cell-based
# T1 sequence (P08581 25-1390): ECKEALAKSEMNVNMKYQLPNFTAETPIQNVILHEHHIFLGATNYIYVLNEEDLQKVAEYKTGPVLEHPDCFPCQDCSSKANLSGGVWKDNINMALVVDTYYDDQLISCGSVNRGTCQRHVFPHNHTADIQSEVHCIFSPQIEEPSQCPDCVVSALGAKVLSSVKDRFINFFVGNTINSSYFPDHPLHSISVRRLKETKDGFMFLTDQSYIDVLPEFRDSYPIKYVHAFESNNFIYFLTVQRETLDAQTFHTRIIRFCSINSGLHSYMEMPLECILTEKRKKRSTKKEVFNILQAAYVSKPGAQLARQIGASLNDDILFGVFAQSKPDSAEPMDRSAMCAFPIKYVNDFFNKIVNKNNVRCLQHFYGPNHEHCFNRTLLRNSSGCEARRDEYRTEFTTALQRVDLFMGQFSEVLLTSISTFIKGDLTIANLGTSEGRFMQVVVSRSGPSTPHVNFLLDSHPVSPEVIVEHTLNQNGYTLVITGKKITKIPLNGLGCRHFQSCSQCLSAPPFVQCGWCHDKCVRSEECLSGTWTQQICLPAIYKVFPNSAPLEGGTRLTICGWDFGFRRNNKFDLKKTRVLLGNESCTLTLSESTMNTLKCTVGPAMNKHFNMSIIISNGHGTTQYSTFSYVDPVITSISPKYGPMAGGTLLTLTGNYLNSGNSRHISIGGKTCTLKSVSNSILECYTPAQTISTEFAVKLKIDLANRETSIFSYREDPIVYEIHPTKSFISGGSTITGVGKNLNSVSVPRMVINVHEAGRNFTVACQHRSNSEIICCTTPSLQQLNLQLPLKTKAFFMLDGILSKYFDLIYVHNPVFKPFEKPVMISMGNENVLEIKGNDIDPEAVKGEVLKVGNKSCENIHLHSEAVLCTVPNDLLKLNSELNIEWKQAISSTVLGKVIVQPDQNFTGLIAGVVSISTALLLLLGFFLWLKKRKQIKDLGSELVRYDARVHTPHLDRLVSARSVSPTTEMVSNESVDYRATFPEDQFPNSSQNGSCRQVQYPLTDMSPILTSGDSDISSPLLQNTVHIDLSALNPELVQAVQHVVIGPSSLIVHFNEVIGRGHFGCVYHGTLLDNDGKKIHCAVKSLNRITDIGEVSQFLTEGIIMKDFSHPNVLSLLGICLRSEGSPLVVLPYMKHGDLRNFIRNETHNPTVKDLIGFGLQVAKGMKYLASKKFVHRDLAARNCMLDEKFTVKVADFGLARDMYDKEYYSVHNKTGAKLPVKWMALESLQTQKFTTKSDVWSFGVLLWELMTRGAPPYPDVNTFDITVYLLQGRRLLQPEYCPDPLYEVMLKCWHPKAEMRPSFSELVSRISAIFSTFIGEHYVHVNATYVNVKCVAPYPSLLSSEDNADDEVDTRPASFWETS
# c-Met [2] = target: T1, c-Met; assay: affinity for c-Met of affinity-matured antibodies; format: binding
# Akt phosphorylation = Akt phosphorylation by affinity-matured antibodies; format: cell-based
molecule,measurement,setting,value
B1,c-Met degradation degree (rank among the four antibodies),c-Met [1],lowest
same,affinity for c-Met (rank among the four antibodies),c-Met [2],highest
same,Akt phosphorylation (rank among the four antibodies),Akt phosphorylation,lowest
